Six compounds from the CheMixHub viscosity set can be followed below.

± gives the uncertainty stated by the source. For part of its entries the source gives two or more results. The other results are left out here. An entry can have further records. The values listed for one entry are repeated measurements in other runs, samples, wells, individuals or studies. Marks in square brackets tell the records apart. The letters are not those of the source and start again with each entry. Marks such as (2×) give the number of equal values in this list.

Consider `CCNCC`, for which the viscosity reads like this: (298.15 K, 100 kPa) 0.304 ± 0.008 mPa·s [study A] and 0.2954 mPa·s [study B] and 0.295 ± 0.1 mPa·s [study C] and 0.2954 mPa·s [study D]; (303.15 K, 100 kPa) 0.288 ± 0.007 mPa·s [study A] and 0.2842 ± 0.15 mPa·s [study B] and 0.288 ± 0.023 mPa·s [study C] and 0.284 ± 0.1 mPa·s [study D] and 0.2842 ± 0.15 mPa·s [study E]; (308.15 K, 100 kPa) 0.274 ± 0.007 mPa·s [study A] and 0.2698 mPa·s [study B] and 0.27 ± 0.1 mPa·s [study C] and 0.2698 mPa·s [study D].

For the compound `NCCN`, the viscosity runs as follows: (308.15 K, 101 kPa) 1.13 ± 0.094 mPa·s [study A] and 1.05 ± 0.03 mPa·s [study B] and 1.12 ± 0.02 mPa·s [study C] and 1.08 ± 0.02 mPa·s [study D] and 1.191 ± 0.01 mPa·s [study E]; (313.15 K, 101 kPa) 1.01 ± 0.088 mPa·s [study A] and 0.986 ± 0.029 mPa·s [study B] and 1.02 ± 0.02 mPa·s [study C] and 1.073 ± 0.0087 mPa·s [study D] and 1.08 ± 0.009 mPa·s [study E]; (318.15 K, 101 kPa) 0.97 ± 0.087 mPa·s [study A] and 0.953 ± 0.029 mPa·s [study B] and 0.93 ± 0.02 mPa·s [study C] and 0.93 ± 0.02 mPa·s [study D] and 0.9819 ± 0.008 mPa·s [study E] and 0.986 ± 0.008 mPa·s [study F].

As for `CC(C)(C)O`, the viscosity by setting is: (298.15 K, 101 kPa) 4.191 ± 0.11 mPa·s, 4.999 ± 0.13 mPa·s, 4.204 ± 0.044 mPa·s, 4.462 ± 0.061 mPa·s, 4.313 ± 0.068 mPa·s, 4.39 ± 0.025 mPa·s (2×), 4.309 ± 0.052 mPa·s, 4.445 ± 0.051 mPa·s, 4.345 ± 0.15 mPa·s, 4.456 ± 0.043 mPa·s [several studies]; (298.15 K, 101.33 kPa) 4.238 mPa·s [study A] and 4.52 ± 0.023 mPa·s [study B] and 4.352 ± 0.05 mPa·s [study C] and 4.445 ± 0.19 mPa·s [study D] and 4.372 ± 0.032 mPa·s [study E] and 4.518 ± 0.035 mPa·s [study F] and 4.372 ± 0.18 mPa·s [study G]; (303.15 K, 101 kPa) 3.402 ± 0.042 mPa·s, 2.968 ± 0.13 mPa·s, 3.287 ± 0.025 mPa·s, 3.319 ± 0.053 mPa·s, 3.364 ± 0.02 mPa·s, 3.03 ± 0.66 mPa·s, 3.238 ± 0.04 mPa·s, 3.335 ± 0.91 mPa·s, 2.968 ± 0.27 mPa·s, 3.372 ± 0.11 mPa·s [several studies]; (303.15 K, 101.33 kPa) 3.365 ± 0.075 mPa·s [study A] and 3.318 ± 0.021 mPa·s [study B] and 3.359 ± 0.051 mPa·s [study C] and 3.359 ± 0.15 mPa·s [study D] and 3.427 ± 0.026 mPa·s [study E]; (308.15 K, 101 kPa) 2.658 ± 0.035 mPa·s, 2.646 ± 0.068 mPa·s, 2.548 ± 0.02 mPa·s, 2.645 ± 0.036 mPa·s, 2.63 ± 0.014 mPa·s, 2.643 ± 0.016 mPa·s (2×), 2.51 ± 0.031 mPa·s, 2.645 ± 0.091 mPa·s, 2.644 ± 0.033 mPa·s, 2.634 ± 0.027 mPa·s [several studies]; (313.15 K, 101 kPa) 2.849 ± 0.81 mPa·s [study A] and 2.145 ± 0.2 mPa·s [study B] and 2.145 ± 0.1 mPa·s [study C] and 2.108 ± 0.026 mPa·s [study D] and 2.096 ± 0.029 mPa·s [study E] and 2.099 ± 0.034 mPa·s [study F] and 2.097 ± 0.012 mPa·s [study G]. The viscosity (313.15 K, 101.33 kPa) was 2.081 ± 0.048 mPa·s [study A] and 2.014 ± 0.031 mPa·s [study B] and 2.014 ± 0.12 mPa·s [study C] and 2.123 ± 0.017 mPa·s [study D]; the viscosity (318.15 K, 101 kPa) is 1.73 ± 0.38 mPa·s [study A] and 1.635 ± 0.059 mPa·s [study B] and 1.702 ± 0.017 mPa·s [study C] and 1.697 ± 0.011 mPa·s [study D].

As for `COCCOCCOCCO`, the viscosity (298.15 K, 101.33 kPa) was 6.586 ± 0.073 mPa·s [study A] and 6.253 ± 0.33 mPa·s [study B] and 6.586 ± 0.14 mPa·s [study C] and 6.24 ± 0.1 mPa·s [study D].

With `Nc1ccccc1`, the viscosity (298.15 K, 101 kPa) was 3.64 ± 0.11 mPa·s, 3.722 ± 0.099 mPa·s, 3.708 ± 0.038 mPa·s, 3.773 ± 0.057 mPa·s, 3.773 ± 0.036 mPa·s, 3.72 ± 0.05 mPa·s, 3.778 ± 0.084 mPa·s, 3.721 ± 0.099 mPa·s, 3.867 ± 0.034 mPa·s, 3.167 ± 0.028 mPa·s [several studies].

Turning to `CN(CCO)CCO`, the viscosity (303.15 K, 101 kPa) is 57.5 ± 3.5 mPa·s [study A] and 59.76 ± 2.5 mPa·s [study B] and 57.23 ± 3.5 mPa·s [study C] and 57.14 ± 0.63 mPa·s [study D]; the viscosity (308.15 K, 101 kPa) is 44.21 ± 2.7 mPa·s [study A] and 46.2 ± 2.4 mPa·s [study B] and 42.98 ± 2.6 mPa·s [study C] and 43.75 ± 0.55 mPa·s [study D]; the viscosity (318.15 K, 101 kPa) was 27.51 ± 1.7 mPa·s [study A] and 29.8 ± 1.6 mPa·s [study B] and 26.12 ± 1.6 mPa·s [study C] and 26.84 ± 0.32 mPa·s [study D].

What is called viscosity is the internal friction of a fluid under shear. A lower viscosity goes with a thin fluid.
